Measured values published in publication PMC4336329 (PLoS ONE, 2015).
Among all 310,000 compounds or so, about 14,000 (4.5%) showed an effect of 50% or more. The effect is printed as a negative number. The list shows a part of the results.

target: human ether-à-go-go-related gene (hERG) potassium channel (human, UniProt Q12809); experiment: primary screen, population patch clamp on CHO cells stably expressing hERG
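Also: peak tail current of the secondary pulse compared with the same well before compound.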

human ether-à-go-go-related gene (hERG) potassium channel, sequence (Q12809 whole entry, looked up): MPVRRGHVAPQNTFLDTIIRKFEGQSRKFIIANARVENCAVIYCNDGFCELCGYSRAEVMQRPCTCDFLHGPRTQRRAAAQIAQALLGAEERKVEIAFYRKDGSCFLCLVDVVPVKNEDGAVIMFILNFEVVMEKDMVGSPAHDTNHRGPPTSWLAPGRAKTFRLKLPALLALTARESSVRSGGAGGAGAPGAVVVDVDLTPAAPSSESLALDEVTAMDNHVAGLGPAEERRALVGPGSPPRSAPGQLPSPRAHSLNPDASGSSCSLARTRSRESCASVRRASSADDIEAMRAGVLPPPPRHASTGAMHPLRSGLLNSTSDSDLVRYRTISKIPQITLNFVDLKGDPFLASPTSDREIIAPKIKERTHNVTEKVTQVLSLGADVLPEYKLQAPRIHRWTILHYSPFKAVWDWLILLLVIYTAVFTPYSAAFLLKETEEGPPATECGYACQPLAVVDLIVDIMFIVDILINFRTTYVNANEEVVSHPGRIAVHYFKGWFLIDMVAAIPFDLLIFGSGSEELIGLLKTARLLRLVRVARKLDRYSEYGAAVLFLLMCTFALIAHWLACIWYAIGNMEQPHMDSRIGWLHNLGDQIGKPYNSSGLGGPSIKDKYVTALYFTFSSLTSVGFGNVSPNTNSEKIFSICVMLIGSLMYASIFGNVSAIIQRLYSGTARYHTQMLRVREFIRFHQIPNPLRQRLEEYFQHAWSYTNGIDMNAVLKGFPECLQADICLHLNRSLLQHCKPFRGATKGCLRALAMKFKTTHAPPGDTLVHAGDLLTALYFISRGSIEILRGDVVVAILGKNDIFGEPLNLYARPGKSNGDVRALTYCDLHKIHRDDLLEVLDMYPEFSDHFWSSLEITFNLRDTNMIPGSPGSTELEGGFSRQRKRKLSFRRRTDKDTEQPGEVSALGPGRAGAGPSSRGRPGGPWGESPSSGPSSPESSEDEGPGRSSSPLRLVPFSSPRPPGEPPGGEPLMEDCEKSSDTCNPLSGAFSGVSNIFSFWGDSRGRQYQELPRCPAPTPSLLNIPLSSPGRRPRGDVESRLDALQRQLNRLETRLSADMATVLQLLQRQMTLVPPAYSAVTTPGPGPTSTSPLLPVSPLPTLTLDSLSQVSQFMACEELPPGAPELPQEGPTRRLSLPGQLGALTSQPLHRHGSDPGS

Compound	hERG current change (%, negative = inhibition) at 10uM
O=C(/C=C/c1ccccc1)Nc1cccc(S(=O)(=O)Nc2ccccc2F)c1	26.3%
CC(C)c1nnc(NC(=O)C2CCCCC2)s1	-2.05%
CCN(CC)C(=O)C(C)OC(=O)c1ccc(O)cc1 (stereo not drawn)	2.18%
CCOC(CNC(=O)c1cccc([N+](=O)[O-])c1)OCC	15%
Nc1ncc(Br)cc1S(=O)(=O)NCCC(=O)Nc1cccc(Cl)c1	-6.98%
COCCN1CCN(C(=O)c2ccc3c(c2)S(=O)(=O)c2ccccc2C3=O)CC1	-1.17%
Nc1cc(-c2cccc([N+](=O)[O-])c2)[nH]n1	-19.8%
CCOc1ccc(OCc2cccc(C(=O)O)c2)cc1	8.48%
CC(C)CCNC(=O)c1ccc(-n2cnc3cccnc32)cc1	-10.8%
O=C(CCN1C(=O)c2ccccc2C1=O)C1=NN[C@@H]2C(=O)N(c3ccc(F)cc3)C(=O)[C@H]12	-5.4%
N/C(=N\OC(=O)Cc1ccccc1)c1ccc(Br)cc1	5.5%
Cc1ccc(OCC(=O)Nc2ccc(-c3nc4ncccc4o3)cc2)c(C)c1	17.8%
O=C(COc1ccc2c3c(c(=O)oc2c1)CCCC3)N1CCN(c2ccc(F)cc2)CC1	-7.75%
Cc1ccc(NC(=O)CSCC(=O)NCCc2ccccc2)c(C)c1	0.722%
O=C(COC(=O)c1ccc(Br)cc1)NCCN1C(=O)CSC1=O	7.1%
CCc1ccc(-c2cn3nc(C)c(C)nc3n2)cc1	-50.8%
O=C(Cn1nnc2ccccc21)OCC(=O)c1ccc(F)cc1	1.04%
Cc1ccc(N2C(=O)NC(=O)/C(=C\c3ccc([N+](=O)[O-])o3)C2=O)cc1	17.7%
CCOc1ccc2c(C)c(C)c(=O)oc2c1OCC	-5.12%

Compound	hERG current change (%, negative = inhibition) at 10uM
CCc1c(C)nc(SCC(=O)Nc2ccc3c(c2)OCCO3)[nH]c1=O	8.64%
O=C(Nc1ccc(Cl)c(Cl)c1)Nc1nccs1	13.6%
COc1ccnc(NCc2ccc(Cl)cc2)c1C#N	17.7%
COc1ccc(OC)c2c1sc(=NC(=O)c1cccc(N3C(=O)CCC3=O)c1)n2C	11.7%
Cc1cccc(-n2ncc3c(NC(C)C)ncnc32)c1	0.989%
COc1ccccc1NC(=O)Nc1nnc(C(C)C)s1	2.46%
Cc1cccc(N2CCN(C(=O)CCNC(=O)Cn3ccc4ccccc4c3=O)CC2)c1C	-55.5%
CC(=O)N(CCc1cccc(C)c1)Cc1cc2ccc(C)cc2[nH]c1=O	-19.7%
CCOCC(=O)Nc1ccc(F)c(F)c1	-3.55%
CCN(CC)C(=O)C1CCCN(C(=S)Nc2cccc3ccccc23)C1 (stereo not drawn)	13.7%
CCC(C)c1ccc(OCC(=O)Nc2ccc3[nH]c(=O)[nH]c3c2)cc1 (stereo not drawn)	1.34%
Cc1ccc(F)cc1NC(=O)c1ccc2c(c1)OCO2	1.94%
O=C(O)COc1ccccc1-c1nc(-c2ccccc2)c(-c2ccccc2)[nH]1	5.22%
COc1ccccc1NC(=O)C(CC(C)C)NC(=O)C1CCCCC1 (stereo not drawn)	-4.36%
Cc1cc(-c2ccc(C)c(S(=O)(=O)N3CCN(c4ccccn4)CC3)c2)on1	-21.2%
CC1CCN(CC(O)COCCOc2ccc(Br)cc2)CC1.Cl (stereo not drawn)	-64.3%
COc1ccccc1N(Cc1cc(=O)[nH]c2ccccc12)C(=O)c1ccccc1	-11%
COc1ccc(C(=O)NN2C(=O)C3C4C=CC(O4)C3C2=O)cc1 (stereo not drawn)	11%
Cc1ccc(C(=O)Nc2cccc(C(F)(F)F)c2)cc1NC(=O)c1nccnc1N	8.61%

Compound	hERG current change (%, negative = inhibition) at 10uM
Cc1ccc(S(=O)(=O)N2[C@@H](c3cccc(Cl)c3)C(C(=O)O)=CC[C@H]2c2cccc(C)c2)cc1	-13.2%
CCOC(=O)C1C(=O)NC(N2CCN(CC)CC2)=NC1c1ccccc1 (stereo not drawn)	16.8%
Cc1cc(C)n(CC(=O)Nc2cccc(C(F)(F)F)c2)n1	29.5%
COC(=O)c1ccc(N2CCOCC2)c(NC(=O)c2cccnc2)c1	-4.85%
COc1cc(OC)c(C2N(c3ccc(Cl)cc3)C(=O)C3CCCN32)cc1OC (stereo not drawn)	-0.307%
CC(C)(C)N1C(=O)c2ccc(C(=O)Nc3cc(C(=O)O)cc(C(=O)O)c3)cc2C1=O	22.1%
COCCNC(=O)C(c1ccc(C)cc1)N(C(=O)CCC(=O)Nc1ccccn1)C1CCCCC1 (stereo not drawn)	4.43%
CCc1csc(CNC(=O)C2CCC(=O)N(Cc3cccc(F)c3)C2)n1 (stereo not drawn)	4.88%
CCn1nc(CC(=O)O)c2ccccc2c1=O	22.9%
CC(C)C1=C2OC(N)=C(C#N)C(C#N)=C2C(C)CC1 (stereo not drawn)	9.98%
COc1ccc(/C=C(/NC(=O)c2ccccc2)C(=O)NCc2ccco2)cc1	27%
O=C1N=c2ccccc2=C1c1sc(Nc2cccc(O)c2)nc1O	15.1%
CN1CCN(C(=O)C2=C[C@H](c3ccccc3)C[C@H](OCc3ccc(CO)cc3)O2)CC1	-26.5%
C[n+]1cccc(/C=N/Nc2nc(Cl)c(C#N)c(Cl)c2Cl)c1.[Cl-]	6.86%
Cc1cc(Nc2cccc(Cl)n2)n(-c2ccccc2)n1	-8.85%
C(=N\n1cnnc1)/c1ccc(OC2CSC2)cc1	-9.61%
O=C(Cc1ccccc1)NC(NC(=O)Cc1ccccc1)c1cccc([N+](=O)[O-])c1	4.27%
O=C(c1cc(-c2ccc(F)cc2)no1)N1CCN(Cc2ccc3c(c2)OCO3)CC1	-19.5%
Cc1cc(C)c2c(N)c(C(=O)Nc3ccccc3Br)sc2n1	13.4%
